The text below walks through data of PubChem BioAssay AID463173 (ICCB-Longwood Screening Facility, Harvard Medical School, 2010).

Molecules are shown by their SMILES. Among all 52,000 compounds or so, about 1,700 (3.3%) were called active. No stated cut-off is given here; in the data, active means survival mostly below about 52% (no sharp cut-off); inactive means mostly above about 56%. Some of the results follow.

The assay relates to Wild type. Nature of the assay: S. aureus survival, RN4220 and DeltatarO strains – OD600, teichoic acid synthesis inhibitors, primary screen (AID 463173). The following applies: S. aureus RN4220 wild type/DeltatarO growth, OD600, 18 h, stronger effect = lower value, screened at 18.75 µg/mL (by protocol).
Turning to `O=C(CSc1nnc(-c2ccccc2Br)n1-c1ccccc1)c1ccc(F)cc1`, the survival was active: 4%.

On to `Cc1nc2ccn(Cc3cccnc3)c(=O)c2cc1C(=O)NCc1ccccc1`, for which the survival was inactive: 68%.

In the case of `O=c1[nH]c(SCc2ccccc2)nc2c1CCCC2`, the survival was inactive: 84%.

For the compound `CC(C)(C)C1CCc2nc(NC(=O)c3cccc(Cl)c3)sc2C1` (centres undefined), the survival was inactive: 51%.

`COC(=O)c1ccc(OCC2c3cc(OC)c(OC)cc3CCN2C(=O)c2ccc(OC)cc2)cc1` (centres undefined): the survival is inactive: 84%.

Turning to `O=C(NC1CCCC1)c1ccc(CSc2nc3cccnc3n2Cc2cccc(F)c2)cc1`, the survival was inactive: 81%.

`COc1cc(OC)c(NC(=O)Cc2c(C(=O)O)c(C)cn2C)cc1Cl`: the survival was inactive: 72%.

Take `COc1ccc(NC(=O)C2=C(C)Nc3ncnn3C2c2sccc2C)cc1` (centres undefined): the survival is inactive: 76%.

For the compound `CC(=O)N1CCCC1c1nc2ccccc2n1Cc1c(F)cccc1Cl` (centres undefined), the survival is inactive: 81%.

On to `CC(C)(C)c1ccc(C(=O)NCCN2CCCC2)cc1`, for which the survival was inactive: 94%.

Take `CCCCn1c(=O)c2oc3ccccc3c2n(CC(=O)Nc2cc(C)ccc2C)c1=O`: the survival is inactive: 91%.

On to `Cc1ccc(CNC(=O)Cc2c(C(=O)O)c(C)cn2C)cc1`, for which the survival is inactive: 85%.

Consider `CCc1ccc(OCC(=O)Nc2ccc(S(=O)(=O)Nc3onc(C)c3C)cc2)cc1`, for which the survival was inactive: 88%.

`COc1ccc(OC2CCN(S(=O)(=O)c3cccc(F)c3)CC2)cc1`: the survival is inactive: 97%.

With `Cc1ccc2oc(=O)n(CCNC(=O)Nc3ccccc3C)c2c1`, the survival was inactive: 119%.

Take `COc1ccc(C)cc1NC(=O)C(NS(=O)(=O)c1cccs1)c1ccccc1` (centres undefined): the survival was inactive: 43%.

As to `Cc1cccc(C(=O)N2CCNC(=O)C2CC(=O)Nc2ccc(F)cc2)c1` (centres undefined), the survival is inactive: 76%.

With `Cc1ccccc1NC(=O)Nc1csc2c1CCCC2`, the survival is inactive: 74%.

For `COc1ccc(C(=O)CSc2nc3cc(C(=O)NC4CCCC4)ccc3c(=O)n2CC2CCCO2)cc1` (centres undefined), the survival is inactive: 76%.

Turning to `CC(C)NC(=O)C(F)(F)F`, the survival is inactive: 106%.

As for `CCOc1ccc(CN2C(=O)c3ccccc3Sc3ccc(C(=O)NCc4ccc5c(c4)OCO5)cc32)cc1`, the survival is inactive: 89%.

Consider `Cc1cccc(NC(=O)Cn2c(=O)n(CCc3ccccc3)c(=O)c3ccccc32)c1`, for which the survival was inactive: 100%.

`Oc1ccccc1C(C#Cc1ccccc1)N1CCOCC1` (centres undefined): the survival is inactive: 110%.

Regarding `COc1ccc(C2C(C(=O)Nc3ccccc3)=C(C)Nc3nc(-c4ccccc4)nn32)c(OC)c1` (centres undefined), the survival was inactive: 105%.

As to `COC(=O)c1cc2oc3ccccc3c2n1CC(=O)Nc1cccc(SC)c1`, the survival is inactive: 71%.

Consider `CCCOc1cccc(C(=O)Nc2cc(-c3nc4ccccc4[nH]3)ccc2C)c1`, for which the survival was inactive: 71%.

Consider `CCCc1cnc2c(c1SCc1cccc(C)c1)c(=O)n(C)c(=O)n2C`, for which the survival was inactive: 75%.

Regarding `COc1ccc(S(=O)(=O)NCCc2sc(C)nc2C)cc1`, the survival was inactive: 67%.

As to `COC(=O)CSc1nc2c(cc1C#N)CCCC2`, the survival is inactive: 130%.

Turning to `COc1cc(OC)c(NC(=O)c2sc3nc4n(c(=O)c3c2C)CCCC4)cc1Cl`, the survival was inactive: 89%.

On to `CCCCC(=O)N1CC(=O)Nc2ccc(F)cc2C1c1ccc(F)cc1` (centres undefined), for which the survival is inactive: 83%.

In the case of `COc1ccc(-n2c(-c3ccccc3F)nc3c(cnn3-c3ccc(C)cc3)c2=O)cc1`, the survival is inactive: 90%.

Take `CCOc1cc(Cn2c(-c3ccc(O)c(OCC)c3)nc3ccccc32)ccc1O`: the survival was inactive: 80%.

Turning to `N#Cc1c(N)sc2c1CCCC2`, the survival is inactive: 81%.

Turning to `O=C(CC1C(=O)OCCN1Cc1ccccc1)Nc1cccc(Cl)c1` (centres undefined), the survival was inactive: 138%.

Regarding `Cc1ccc(CCNC(=O)CN2C(=O)COc3ccc(S(=O)(=O)N4CCCC4)cc32)cc1`, the survival was inactive: 81%.

Turning to `Cc1cc(C)cc(NC(=O)c2nnn(Cc3cccc(Br)c3)c2N)c1`, the survival is inactive: 80%.

On to `Cc1ccc(S(=O)Cc2ccc(C(=O)NCc3ccc(OC(C)C)cc3)o2)cc1` (centres undefined), for which the survival was inactive: 59%.

For the compound `Cc1nc2c3cccnc3nn2c(C)c1CCC(=O)NCc1ccccc1Cl`, the survival is inactive: 125%.

With `O=C1CC(SCc2nc3ccccc3[nH]2)C(=O)N1c1ccc(F)cc1` (centres undefined), the survival was inactive: 88%.

With `Cc1ccc2c(Sc3ccccc3)c(C(=O)NCc3ccccc3F)[nH]c2c1`, the survival was inactive: 91%.

For the compound `CCOc1ccccc1NC(=O)CSc1nc2ccccc2nc1Cc1ccc(C)cc1`, the survival was inactive: 77%.

As to `CC(=O)OC(C(=O)NC1CCCCC1)c1ccccc1` (centres undefined), the survival is inactive: 111%.

For `CC(=O)c1ccc(NC(=O)c2sc(-n3nc(C)c(CCC(C)C)c3C)nc2C)cc1`, the survival is inactive: 103%.

Take `CN=C1S/C(=C\c2cn(CC(=O)NCc3ccco3)c3ccccc23)C(=O)N1C`: the survival was inactive: 109%.

Regarding `CCn1c(CNC(=O)C23CC4CC(CC(C4)C2)C3)nnc1SCC(=O)Nc1ccc(C)cc1`, the survival is inactive: 82%.

Regarding `CC(=O)Nc1ccccc1-c1nc2ccccc2n(C(C)C(=O)Nc2cc(Cl)ccc2C)c1=O` (centres undefined), the survival is inactive: 83%.

Consider `CCN(CC)S(=O)(=O)c1nnc(NC(=O)COc2ccc(C)cc2)s1`, for which the survival was inactive: 85%.

In the case of `CC(=O)Nc1ccc(NC(=O)CCc2c(C)nc3c(c(C)nn3-c3ccc(C)cc3)c2C)cc1`, the survival was inactive: 129%.

With `CCCn1c(SCC(=O)c2ccccc2)nnc1C(C)C`, the survival is inactive: 105%.

In the case of `CCOc1ccc(NC(=O)c2ccc(CN3C(=O)C(C)=C(c4ccc(C)cc4)S3(=O)=O)cc2)cc1`, the survival was inactive: 77%.

As for `Cc1ccc(C)c(NC(=O)CSc2nnc(CNC(=O)c3ccccc3)n2-c2ccccc2)c1`, the survival is inactive: 63%.

In the case of `CCC(=O)Nc1ccccc1-c1nc2ccccc2n(Cc2cccc(Br)c2)c1=O`, the survival is inactive: 87%.

As for `C=CCN(CC=C)C(=O)C1CCN(S(=O)(=O)c2ccc(-n3cnnn3)cc2)CC1`, the survival was inactive: 100%.

As to `O=C(Nc1ccccc1Cl)c1ccc(F)c(S(=O)(=O)NCc2ccc(Cl)c(Cl)c2)c1`, the survival was inactive: 69%.

With `COc1ccc(CN2CCCN(CC(=O)Nc3cc(C)ccc3C)S2(=O)=O)cc1`, the survival is inactive: 80%.

Take `CCOC(=O)c1sc(N2C(=O)c3oc4cc(C)c(C)cc4c(=O)c3C2c2ccc(C)cc2)nc1C` (centres undefined): the survival is inactive: 149%.

Regarding `CC(=O)N1CCCc2cc(S(=O)(=O)N(CCN(C)C)Cc3ccccc3)ccc21`, the survival was inactive: 74%.

For the compound `CCc1ccc2oc(C(=O)NCC(c3ccc(Cl)cc3)N3CCOCC3)c(C)c2c1` (centres undefined), the survival was inactive: 75%.
